“And” between values parts separate entries of the source, which are not always exact repeats. Equal entries are not always repeated. In all, about 16,000 compounds went through this assay and about 40 (0.2%) were called active. Roughly 1% stayed inconclusive and do not appear here. Calls come from the whole dose curve; as a rule, active = well fitted activation curve with a large enough effect; inconclusive = small, poorly fitted or top-dose-only effect, or another doubt; inactive = no such curve, though single readings can be large or run the other way. The list shows a part of the results.
% is set by controls: 0 for no effect and ±100 for the full control effect.

The assay has as its target Rap guanine nucleotide exchange factor 4 (Homo sapiens) (UniProt Q8WZA2). Nature of the assay: Validation qHTS for agonist of cAMP-regulated guanine nucleotide exchange factor 4 (EPAC2).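 Note: exchange makes BODIPY-GDP fluorescence drop when released from Rap1B; series mostly up to about 150 µM.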 Particulars: EPAC2 Rap1B BODIPY-GDP exchange, fluorescence; activation: stronger effect = higher value. The method, boiled down: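 Fluorescent exchange assay: 100 nM EPAC2 with 250 nM RAP1B-BODIPY-GDP and 50 uM GDP; compound added, 5 min at room temperature, then read (ex 480/em 540 nm) every 5 min for 30 min. Normalized to 6.5 mM cAMP agonist control.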
UniProt Q8WZA2, sequence (Q8WZA2 whole entry, looked up): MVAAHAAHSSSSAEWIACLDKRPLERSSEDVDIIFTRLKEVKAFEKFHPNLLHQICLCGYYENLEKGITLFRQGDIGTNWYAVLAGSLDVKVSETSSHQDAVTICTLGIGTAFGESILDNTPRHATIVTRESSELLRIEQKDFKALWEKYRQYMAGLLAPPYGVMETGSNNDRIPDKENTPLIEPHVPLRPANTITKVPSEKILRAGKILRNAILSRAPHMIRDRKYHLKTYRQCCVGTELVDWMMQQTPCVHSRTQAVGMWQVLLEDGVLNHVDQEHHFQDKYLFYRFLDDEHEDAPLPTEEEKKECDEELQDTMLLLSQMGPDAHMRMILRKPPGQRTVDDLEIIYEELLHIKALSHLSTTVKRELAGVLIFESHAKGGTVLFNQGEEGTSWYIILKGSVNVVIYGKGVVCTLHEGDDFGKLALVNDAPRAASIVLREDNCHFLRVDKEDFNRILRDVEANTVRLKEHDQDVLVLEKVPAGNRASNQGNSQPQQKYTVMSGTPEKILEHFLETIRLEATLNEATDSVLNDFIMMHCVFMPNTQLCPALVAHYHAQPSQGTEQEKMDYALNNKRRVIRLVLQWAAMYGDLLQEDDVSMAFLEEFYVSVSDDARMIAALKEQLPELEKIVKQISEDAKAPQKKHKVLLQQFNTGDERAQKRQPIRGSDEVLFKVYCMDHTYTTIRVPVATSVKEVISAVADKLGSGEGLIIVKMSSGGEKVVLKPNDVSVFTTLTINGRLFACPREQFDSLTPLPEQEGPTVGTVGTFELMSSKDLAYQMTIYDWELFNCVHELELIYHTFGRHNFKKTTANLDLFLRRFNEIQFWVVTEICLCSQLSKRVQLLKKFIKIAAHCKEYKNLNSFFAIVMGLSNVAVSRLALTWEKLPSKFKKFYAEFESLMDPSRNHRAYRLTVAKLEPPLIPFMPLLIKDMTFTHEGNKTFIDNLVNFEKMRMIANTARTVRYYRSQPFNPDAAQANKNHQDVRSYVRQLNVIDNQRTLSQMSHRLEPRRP
As for `O=C(c1cc(C(F)(F)F)cc(C(F)(F)F)c1)N1CCC2(CCCN(Cc3ccccc3)C2)CC1`, the activation was inactive: -6.26%.

Regarding `CS(=O)c1ccc(-c2nc(-c3ccc(F)cc3)c(-c3ccncc3)[nH]2)cc1` (stereo not given), the activation was inactive: -19.8% and inactive: -6.34%.

Take `COCCn1c(=O)c(-c2ccc(F)cc2)nc2cncnc21`: the activation is inactive: -15.8%.

`CC(C)CN1CC[C@@]2(CCCN(C(=O)c3csnn3)C2)C1`: the activation was inactive: -7.63%.

Take `CC(C)CN1CCC(=O)N(CCO)CC1`: the activation was inactive: -3.13%.

Regarding `COc1cc(CN2CCc3nnc(C(NS(C)(=O)=O)C(C)C)n3CC2)ccc1F` (stereo not given), the activation is inactive: -2.91%.

Take `COc1ccc(OC)c(CN2CCOc3ccc(C(O)c4cccnc4)cc3C2)c1` (stereo not given): the activation is inactive: -4.57%.

Take `CNC1(C)C2CCC(C2)C1(C)C` (stereo not given): the activation was inactive: -13.1% and inactive: -21.9%.

Turning to `Cc1nc2cncnc2n(Cc2ccccc2Cl)c1=O`, the activation was inactive: -13%.

Regarding `NC(=O)C1(N2CCCCC2)CCN(CCCC(=O)c2ccc(F)cc2)CC1`, the activation is inactive: -6%.

`O=C(c1ccco1)N1CCC2(CC1)CCN(C(c1ccccc1)c1ccccc1)CC2`: the activation is inactive: -3.07%.

In the case of `COCCn1c(=O)c(-c2cn(C)c3ccccc23)nc2cnc(OCc3ccccc3)nc21`, the activation is inactive: -7.63%.

For `CN(Cc1ccco1)c1nc(-c2cccc(C#N)c2)nc2ccccc12`, the activation was inactive: -3.51%.

Turning to `S=c1nc[nH]c2nc[nH]c12`, the activation is inactive: -17.7% and inactive: -9.32%.

`CC12CCC(C[N+](C)(CCC[N+](C)(C)C)C1)C2(C)C` (stereo not given): the activation is inactive: -3.9%.

On to `Cn1cc(-c2nc3cnc(Oc4ccccc4)nc3n(Cc3cccs3)c2=O)c2ccccc21`, for which the activation is inactive: -10.6%.

With `NS(=O)(=O)c1cc2c(cc1Cl)NC(Cc1ccccc1)NS2(=O)=O` (stereo not given), the activation was inactive: -6%.

With `CC1=C(C(=O)O)N2C(=O)[C@@H](NC(=O)[C@H](N)c3ccc(O)cc3)[C@H]2SC1`, the activation was inactive: 6.46%.

Turning to `CN1CCN(c2ncncc2-c2ccoc2)CC1`, the activation is inactive: 7.18%.

Take `CN(CC1(C)CCCO1)S(=O)(=O)c1ccc(Cl)c(S(N)(=O)=O)c1` (stereo not given): the activation is inactive: -11.1%.

Turning to `CC(CCC(=O)O)C1CCC2C3CC[C@@H]4CCCC[C@@]4(C)C3CC[C@@]12C` (stereo not given in full), the activation is inactive: -7.33%.

Take `C[C@@H](O)[C@H]1C(=O)N2C(C(=O)O)=C(SCCN=CN)C[C@H]12`: the activation is inactive: -17.9% and inactive: -21.2%.

With `O=S1(=O)CCO[C@H]2CCCC[C@@H]2N1Cc1ccccc1`, the activation is inactive: -16.7%.

Take `N#CC(=C(/N)Sc1ccccc1N)/C(C#N)=C(\N)Sc1ccccc1N`: the activation is inactive: 14.3% and inactive: -1.06%.

On to `CN(C)C(=O)c1ccc(-c2nc(N(C)C)c3ccccc3n2)cc1`, for which the activation is inactive: -5.68%.

Regarding `O=C(O)CC/C=C\C[C@@H]1CO[C@H](c2ccccc2Cl)O[C@@H]1c1ccccc1O`, the activation is inactive: -11.3%.

`Cc1cccc(CNc2ncncc2-c2cccnc2)c1`: the activation was inactive: -0.945%.

Consider `Nc1nc2c(c(=O)[nH]1)N=C(CNc1ccc(C(=O)NC(CCC(=O)O)C(=O)O)cc1)CN2` (stereo not given), for which the activation is inactive: 4.18%.

For the molecule `O=C(NCCN1Cc2ccccc2OC(c2ccccc2F)C1)c1cncs1` (stereo not given), the activation was inactive: -11.2%.

On to `CN(C)c1ccc(-c2nc(N(C)C)c3ccccc3n2)cc1`, for which the activation is inactive: -2.08%.

Take `O=C(O)CCC/C=C\C[C@@H]1[C@@H](/C=C/[C@H](O)C2Cc3ccccc3C2)[C@@H](F)C[C@@H]1O`: the activation is inactive: -29%.

For the molecule `COc1ccc(CNC(=O)C[C@H]2C(=O)N(CCc3ccccc3)C[C@@H]2Cc2ccccc2)cc1`, the activation was inactive: -11.9%.

On to `COc1ccccc1CN1CCC2(CC1)CCN(C(=O)c1ccco1)CC2`, for which the activation was inactive: -13.9%.

As to `COc1ncc2nc(C)c(=O)n(C[C@H]3CCCO3)c2n1`, the activation is inactive: -4.72%.

As to `COCCn1c(=O)c(-c2ccc(Cl)cc2)nc2cnc(N3CCNCC3)nc21`, the activation was inactive: 2.87%.

On to `Cc1c(C(=O)NCC(C)(C)N2CCOCC2)cnn1-c1ncc2c(n1)-c1ccccc1CC2`, for which the activation is inactive: -0.682%.

As for `COc1cccc(CN(C)C(=O)c2cnn(-c3ncc4c(n3)-c3ccccc3CCC4)c2C)c1`, the activation was inactive: -13.5%.

Regarding `CC12CCC(C1)C(C)(C)C2=O` (stereo not given), the activation is inactive: 9.93%.

Turning to `COc1ncc2ncc(=O)n(C)c2n1`, the activation is inactive: 4.8%.

Regarding `CCN(CC)c1ccc(/C=C/c2ccncc2)cc1`, the activation was inactive: -14.4%.

For the molecule `CN1CCN(c2cc(-c3ccccc3Cl)ncn2)CC1`, the activation was inactive: -13.7%.

For the molecule `CC(C)CN1CCC(=O)N([C@H](COc2ccccc2)c2ccccc2)CC1`, the activation is inactive: -22.3%.

Regarding `COc1cc(C)c2c(=O)cc(-c3ccccc3)oc2c1`, the activation was inactive: -6.39%.

In the case of `Cc1cc(C(=O)NCCN2Cc3ccccc3OC(c3ccccc3F)C2)no1` (stereo not given), the activation was inactive: -7.97%.

For `N[C@@H](CSS(=O)(=O)O)C(=O)O`, the activation was inactive: -0.487% and inactive: 1.11% and inactive: 5.69%.

Regarding `CS(=O)(=O)Nc1cccc(-c2nccc(-n3ccnc3)n2)c1`, the activation was inactive: -17.1%.

For `Cc1cnc(-n2ncc(C(=O)N(C)CCc3ccccn3)c2-c2cccs2)nc1-c1ccc(F)cc1`, the activation is inactive: -14.7%.

For `O=C(c1cccc(F)c1)N(Cc1cc2cc3c(cc2nc1N1CCOCC1)CCC3)CC1CCCO1` (stereo not given), the activation is inactive: -18.8%.

As to `COC1[C@H](OC(N)=O)C(O)[C@H](Oc2ccc3c(O)c(NC(=O)c4ccc(O)c(CC=C(C)C)c4)c(=O)oc3c2C)OC1(C)C` (stereo not given in full), the activation was inactive: 8.27%.

Consider `COCCN1CCN(C(=O)c2cnn(-c3ncc4c(n3)-c3ccc(OC)cc3CC4)c2C2CC2)CC1`, for which the activation is inactive: -5.12%.

Take `O=C(C[n+]1cccc2cc(Cl)ccc21)c1ccc(I)cc1`: the activation was inactive: -18.5%.

For the molecule `COc1cc(OC)c(CN2CCOc3ccc(CN4CCC(O)CC4)cc3C2)c(OC)c1`, the activation is inactive: -16.5%.

`CC(C)C[C@@H](CO)N1CCN(Cc2ccc([N+](=O)[O-])cc2)CCC1=O`: the activation was inactive: -9.36%.

With `CC(C)(Oc1ccc(C2CC2(Cl)Cl)cc1)C(=O)O` (stereo not given), the activation was inactive: -32.2% and inactive: 6.11%.

As to `COCCn1c(=O)c(-c2ccc(F)c(F)c2)nc2cncnc21`, the activation is inactive: 3.12%.

Source of the values: PubChem BioAssay AID1645887 (National Center for Advancing Translational Sciences (NCATS), 2021).
